{
  "source": "the supplement of paper PMC8728848",
  "test_in_all_cases": "glycan array binding signal (z-score within array); higher = stronger binding",
  "settings_in_all_cases": "glycan notation: IUPAC condensed, linker removed",
  "key": {"[1]": {"target": "Gal3S(b1-4)Glc", "outline": "(§1)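 Glycan array data came from 3228 arrays in the Consortium for Functional Glycomics database, and only arrays with an available protein sequence were kept. Glycan names were put into IUPAC-condensed notation, and columns mapping to the same glycan were averaged. The binding signal is a within-array Z-score, averaged across arrays of one protein sequence run at different concentrations or buffers and across linkers. A negative Z-score can be read as non-binding.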"}, "[2]": {"target": "Gal3S(b1-4)Glc6S", "outline": "as §1"}, "[3]": {"target": "Gal3S(b1-4)GlcNAc", "outline": "as §1"}, "[4]": {"target": "Gal3S(b1-4)[Fuc(a1-3)]Glc6S", "outline": "as §1"}, "[5]": {"target": "Gal3S(b1-4)[Fuc(a1-3)]GlcNAc", "outline": "as §1"}, "[6]": {"target": "Gal3S(b1-4)[Fuc(a1-3)]GlcNAc6S", "outline": "as §1"}, "[7]": {"target": "Gal3S4S(b1-4)GlcNAc", "outline": "as §1"}, "[8]": {"target": "Gal3S6S(b1-4)GlcNAc", "outline": "as §1"}, "[9]": {"target": "Gal3S6S(b1-4)GlcNAc6S", "outline": "as §1"}, "[10]": {"target": "Gal4S(b1-4)GlcNAc", "outline": "as §1"}, "[11]": {"target": "Gal4S6S(b1-4)GlcNAc", "outline": "as §1"}, "[12]": {"target": "Gal6P(b1-4)GlcNAc", "outline": "as §1"}, "[13]": {"target": "Gal6S(b1-3)GlcNAc", "outline": "as §1"}, "[14]": {"target": "Gal6S(b1-3)GlcNAc6S", "outline": "as §1"}, "[15]": {"target": "Gal6S(b1-4)Glc", "outline": "as §1"}, "[16]": {"target": "Gal6S(b1-4)Glc6S", "outline": "as §1"}, "[17]": {"target": "Gal6S(b1-4)GlcNAc", "outline": "as §1"}, "[18]": {"target": "Gal6S(b1-4)GlcNAc6S", "outline": "as §1"}, "[19]": {"target": "GalNAc(a1-3)Gal", "outline": "as §1"}, "[20]": {"target": "GalNAc(a1-3)GalNAc", "outline": "as §1"}, "[21]": {"target": "GalNAc(a1-3)GalNAc(b1-3)Gal(a1-4)Gal(b1-4)Glc", "outline": "as §1"}, "[22]": {"target": "GalNAc(a1-3)GalNAc(b1-3)Gal(a1-4)Gal(b1-4)GlcNAc", "outline": "as §1"}, "[23]": {"target": "GalNAc(b1-3)Gal", "outline": "as §1"}, "[24]": {"target": "GalNAc(b1-3)Gal(a1-4)Gal(b1-4)GlcNAc", "outline": "as §1"}, "[25]": {"target": "GalNAc(b1-3)Gal(a1-4)Gal(b1-4)GlcNAc(b1-3)Gal(b1-4)Glc", "outline": "as §1"}, "[26]": {"target": "GalNAc(b1-3)Gal(a1-6)Gal(b1-4)Glc", "outline": "as §1"}, "[27]": {"target": "GalNAc(b1-3)GalNAc", "outline": "as §1"}, "[28]": {"target": "GalNAc(b1-3)GlcNAc", "outline": "as §1"}, "[29]": {"target": "GalNAc(b1-4)Gal(b1-4)Glc", "outline": "as §1"}, "[30]": {"target": "GalNAc(b1-4)GlcNAc", "outline": "as §1"}, "[31]": {"target": "GalNAc(b1-4)GlcNAc(b1-2)Man", "outline": "as §1"}, "[32]": {"target": "GalNAc(b1-4)GlcNAc(b1-2)Man(a1-3)[GalNAc(b1-4)GlcNAc(b1-2)Man(a1-6)]Man(b1-4)GlcNAc(b1-4)GlcNAc", "outline": "as §1"}, "[33]": {"target": "GalNAc(b1-4)GlcNAc(b1-3)GalNAc(b1-4)GlcNAc", "outline": "as §1"}, "[34]": {"target": "GalNAc(b1-4)GlcNAc6S", "outline": "as §1"}, "[35]": {"target": "GalNAc(b1-6)GalNAc", "outline": "as §1"}, "[36]": {"target": "GalNAc3S(b1-4)GlcNAc", "outline": "as §1"}, "[37]": {"target": "GalNAc3S(b1-4)GlcNAc3S", "outline": "as §1"}, "[38]": {"target": "GalNAc3S(b1-4)[Fuc(a1-3)]GlcNAc", "outline": "as §1"}, "[39]": {"target": "GalNAc4S6S(b1-4)GlcNAc", "outline": "as §1"}, "[40]": {"target": "GalNAc6S(b1-4)GlcNAc", "outline": "as §1"}, "[41]": {"target": "Glc(a1-4)Glc", "outline": "as §1"}, "[42]": {"target": "Glc(a1-4)Glc(a1-4)Glc(a1-4)Glc", "outline": "as §1"}, "[43]": {"target": "Glc(a1-6)Glc(a1-6)Glc", "outline": "as §1"}, "[44]": {"target": "Glc(a1-6)Glc(a1-6)Glc(a1-6)Glc", "outline": "as §1"}, "[45]": {"target": "Glc(b1-4)Glc", "outline": "as §1"}},
  "note": "The list shows a part of the results.",
  "data": [
    {"binder": "AidA (Burkholderia cenocepacia) (protein) MSRVTDVLVSFDTETILKKYPNPSKNPAAPTLIDWRYVYMVTNQDNVISGQAGGELDLKAQVGDLIRWRETSLSLGFENQVVFYKFIGNVGNDLISTPTPRVAEASIPVPNTSKPEVPTCQKVANYYWSSECLKVGRVTYHFQFQIIDRNCQSQGCFSWDPFISIHN", "values": [
      {"measurement": "glycan array binding signal (z-score)", "setting": "[1]", "result": -0.068},
      {"measurement": "glycan array binding signal (z-score)", "setting": "[2]", "result": -0.072},
      {"measurement": "glycan array binding signal (z-score)", "setting": "[3]", "result": -0.063},
      {"measurement": "glycan array binding signal (z-score)", "setting": "[4]", "result": 2.38},
      {"measurement": "glycan array binding signal (z-score)", "setting": "[5]", "result": -0.437},
      {"measurement": "glycan array binding signal (z-score)", "setting": "[6]", "result": 0.053},
      {"measurement": "glycan array binding signal (z-score)", "setting": "[7]", "result": -0.443},
      {"measurement": "glycan array binding signal (z-score)", "setting": "[8]", "result": -0.009},
      {"measurement": "glycan array binding signal (z-score)", "setting": "[9]", "result": 0.334},
      {"measurement": "glycan array binding signal (z-score)", "setting": "[10]", "result": 0.016},
      {"measurement": "glycan array binding signal (z-score)", "setting": "[11]", "result": 0.938},
      {"measurement": "glycan array binding signal (z-score)", "setting": "[12]", "result": -0.562},
      {"measurement": "glycan array binding signal (z-score)", "setting": "[13]", "result": 0.725},
      {"measurement": "glycan array binding signal (z-score)", "setting": "[14]", "result": -0.324},
      {"measurement": "glycan array binding signal (z-score)", "setting": "[15]", "result": -0.117},
      {"measurement": "glycan array binding signal (z-score)", "setting": "[16]", "result": -0.308},
      {"measurement": "glycan array binding signal (z-score)", "setting": "[17]", "result": 0.628},
      {"measurement": "glycan array binding signal (z-score)", "setting": "[18]", "result": -0.704},
      {"measurement": "glycan array binding signal (z-score)", "setting": "[19]", "result": 0.384},
      {"measurement": "glycan array binding signal (z-score)", "setting": "[20]", "result": -0.507},
      {"measurement": "glycan array binding signal (z-score)", "setting": "[21]", "result": 0.288},
      {"measurement": "glycan array binding signal (z-score)", "setting": "[22]", "result": -0.323},
      {"measurement": "glycan array binding signal (z-score)", "setting": "[23]", "result": 0.1},
      {"measurement": "glycan array binding signal (z-score)", "setting": "[24]", "result": 1.03},
      {"measurement": "glycan array binding signal (z-score)", "setting": "[25]", "result": -0.049},
      {"measurement": "glycan array binding signal (z-score)", "setting": "[26]", "result": -0.129},
      {"measurement": "glycan array binding signal (z-score)", "setting": "[27]", "result": -0.617},
      {"measurement": "glycan array binding signal (z-score)", "setting": "[28]", "result": -0.115},
      {"measurement": "glycan array binding signal (z-score)", "setting": "[29]", "result": 0.236},
      {"measurement": "glycan array binding signal (z-score)", "setting": "[30]", "result": 1.43},
      {"measurement": "glycan array binding signal (z-score)", "setting": "[31]", "result": 0.445},
      {"measurement": "glycan array binding signal (z-score)", "setting": "[32]", "result": 1.26},
      {"measurement": "glycan array binding signal (z-score)", "setting": "[33]", "result": -0.139},
      {"measurement": "glycan array binding signal (z-score)", "setting": "[34]", "result": -0.748},
      {"measurement": "glycan array binding signal (z-score)", "setting": "[35]", "result": -0.239},
      {"measurement": "glycan array binding signal (z-score)", "setting": "[36]", "result": 0.333},
      {"measurement": "glycan array binding signal (z-score)", "setting": "[37]", "result": -0.433},
      {"measurement": "glycan array binding signal (z-score)", "setting": "[38]", "result": -0.28},
      {"measurement": "glycan array binding signal (z-score)", "setting": "[39]", "result": -0.374},
      {"measurement": "glycan array binding signal (z-score)", "setting": "[40]", "result": -0.593},
      {"measurement": "glycan array binding signal (z-score)", "setting": "[41]", "result": 0.105},
      {"measurement": "glycan array binding signal (z-score)", "setting": "[42]", "result": -0.244},
      {"measurement": "glycan array binding signal (z-score)", "setting": "[43]", "result": -1.29},
      {"measurement": "glycan array binding signal (z-score)", "setting": "[44]", "result": -0.597},
      {"measurement": "glycan array binding signal (z-score)", "setting": "[45]", "result": -0.677}
    ]}
  ]
}
